# Measurements as given in PubChem BioAssay AID588342 (National Center for Advancing Translational Sciences (NCATS), 2011).
# Screen size: about 360,000 compounds; about 25,000 (6.9%) were called active. Inconclusive results, whose numbers are uncertain, are shown with a selection of clear calls. Calls follow the shape of the dose curve; as a rule, active = well fitted inhibition curve with a large enough effect; inconclusive = small, poorly fitted or top-dose-only effect; inactive = flat fitted curve, though single readings scatter. Where the call is inconclusive, the potency comes from a doubtful curve fit.
# Molecular target: Luciferin 4-monooxygenase (Photinus pyralis) (UniProt P08659)
# Assay: qHTS profiling assay for firefly luciferase inhibitor/activator using purifed enzyme and Km concentrations of substrates (counterscreen for miR-21 project); also: nearly all actives have a fitted effect of over 55% in size
# Conditions: purified FLuc, luminescence inhibition; series mostly up to 57.5 µM
# How it was run: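 Purified P. pyralis luciferase, 10 nM final, with Km-level 10 uM D-luciferin and 10 uM ATP in 50 mM Tris acetate pH 7.5, 10 mM Mg acetate, 0.01% Tween-20, 0.05% BSA; 6-point qHTS titration about 60 µM downward; luminescence read.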
# Potency is read from the fitted curve at half-maximal effect; tags tell the direction and shape of the fitted curve.
# UniProt P08659, sequence (P08659 whole entry, looked up): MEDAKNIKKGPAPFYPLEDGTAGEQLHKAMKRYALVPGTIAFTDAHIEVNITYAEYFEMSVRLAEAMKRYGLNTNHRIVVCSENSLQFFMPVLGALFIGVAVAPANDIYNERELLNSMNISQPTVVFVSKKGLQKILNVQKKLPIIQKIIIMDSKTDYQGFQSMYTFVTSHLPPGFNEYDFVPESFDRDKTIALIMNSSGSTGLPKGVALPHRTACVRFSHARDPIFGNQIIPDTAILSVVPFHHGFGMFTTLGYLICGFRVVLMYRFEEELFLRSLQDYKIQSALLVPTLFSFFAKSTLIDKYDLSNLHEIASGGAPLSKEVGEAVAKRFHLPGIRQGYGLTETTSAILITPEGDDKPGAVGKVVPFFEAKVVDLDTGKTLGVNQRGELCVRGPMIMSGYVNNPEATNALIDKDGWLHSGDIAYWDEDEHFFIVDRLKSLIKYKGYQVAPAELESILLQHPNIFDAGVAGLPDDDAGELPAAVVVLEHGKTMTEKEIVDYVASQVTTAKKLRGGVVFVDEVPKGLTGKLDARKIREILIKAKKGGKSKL
row,Compound,Potency
1,CN1CCN(CCCCOc2ccccc2C=O)CC1,inactive
2,Cc1c(C(=O)Nc2cccc(C(F)(F)F)c2)oc2ccc3c(c12)C(=O)CC(C)(C)O3,active: 3.38 µM
3,Cc1ccc(-c2nc(C)sc2CC(=O)OCC(=O)Nc2cccc([N+](=O)[O-])c2)cc1,inactive
4,Cc1nn(Cc2ccccc2)c(Cl)c1/C=N/NC(=O)c1cccnc1,"inconclusive: 33.8 µM [inhibitor, partial curve, poor fit]"
5,COC(=O)CN1C(=O)CSc2ccc(S(=O)(=O)Nc3cc(C)ccc3C)cc21,inactive
6,O=C(Nc1ccc2ccccc2c1)c1ccc(Cl)cc1,active: 0.536 µM
7,Cc1ccc(Nc2nc(CSc3nnnn3C)cs2)cc1,active: 3.38 µM
8,Cc1ccc(C(=O)NNC(=O)c2ccco2)cc1,active: 16.9 µM
9,O=C(NNS(=O)(=O)c1ccccc1F)c1cc(-c2ccccc2)n[nH]1,inactive
10,Cc1ccc(NC(=O)COC(=O)/C(=C/c2cccs2)c2cccs2)cc1S(=O)(=O)N(C)C,"inconclusive: 13.5 µM [inhibitor, partial curve]"
11,Cc1ccc(NC(=O)c2ccc(Cl)c(S(=O)(=O)N3CCCCC3)c2)nc1,"inconclusive: 37.9 µM [inhibitor, partial curve, poor fit]"
12,Cc1ccc(C(=O)CSc2nc3ccccc3o2)cc1,active: 13.5 µM
13,CN1CCN(/N=C/c2ccc(N(C)c3ccccc3)cc2)CC1,"inconclusive: 26.9 µM [inhibitor, partial curve]"
14,CCCCOC(=O)c1ccc(NC(=O)c2ccoc2C)cc1,"inconclusive: 13.5 µM [inhibitor, partial curve]"
15,CCOC(=O)N1CCN(S(=O)(=O)c2ccc(C)cc2)C1c1ccccc1 (configuration not stated),inactive
16,Cc1cccc(NC(=O)CN2CCN(C(=O)C3CCN(C(=O)/C=C/c4ccccc4)CC3)CC2)c1C,inactive
17,CC1=NN(C(N)=S)C(=O)C1N=Nc1cccc(C)c1 (configuration not stated),"inconclusive: 6.75 µM [inhibitor, partial curve]"
18,Cc1ccccc1-c1noc(CCC(=O)Nc2cccc(C)c2C)n1,inactive
19,O=C(Nc1cccc(OCc2cc(=O)n3c4c(sc3n2)CCCC4)c1)c1ccc(F)cc1,"inconclusive: 10.7 µM [inhibitor, partial curve, poor fit]"
20,CC1CCN(C(=O)CSc2nnc(-c3cccs3)o2)CC1,inactive
21,CC1CC1C(=O)OCC(=O)Nc1cccc(Br)c1 (configuration not stated),"inconclusive: 23.9 µM [inhibitor, partial curve, poor fit]"
22,O=C1CCOc2cc(OCc3ccccc3)ccc21,active: 1.51 µM
